# Screen size: about 52,000 compounds; about 1,700 (3.3%) were called active. Cut-off read from the data, not from the text of the source: active = survival mostly below about 52% (no sharp cut-off); inactive = mostly above about 56%. Some of the results follow.
# Test system: Wild type
# Assay: S. aureus survival, RN4220 and DeltatarO strains – OD600, teichoic acid synthesis inhibitors, primary screen (AID 463173)
# Details: S. aureus RN4220 wild type/DeltatarO growth, OD600, 18 h, hits give low values, screened at 18.75 µg/mL (by protocol)
row,Structure (SMILES),survival
1,CCc1ccc(-n2nc(C)c3c(C)cc(=O)n(CC(=O)Nc4cc(C)ccc4C)c32)cc1,inactive: 91%
2,COc1ccc(NC(=O)c2ncn(-c3ccccc3)n2)cc1Cl,inactive: 81%
3,COc1ccc(CCNC(=O)CCc2c(C)nc3c4cccnc4nn3c2C)cc1OC,inactive: 81%
4,CCOc1ccc2nc3sc(C(=O)Nc4nonc4C)c(N)c3cc2c1,inactive: 105%
5,CCCCn1cc(S(=O)(=O)c2ccc(OC)cc2)c(=O)c2cc(F)c(N3CCOCC3)cc21,inactive: 73%
6,CCOC(=O)c1nnn(-c2nn3nnnc3c3ccccc23)c1C,inactive: 101%
7,Cc1c(C(=O)OCC2CCCCC2)[nH]c2c1C(=O)CC(c1ccccc1Cl)C2 (stereo not drawn),inactive: 92%
8,COc1ccccc1NC(=O)N1CCN(Cc2nc3ccc(C)cc3o2)CC1,inactive: 82%
9,Cc1ccc(N2C(=O)c3n[nH]c(C)c3C2c2ccccc2Cl)cc1 (stereo not drawn),inactive: 137%
10,CC(=O)Nc1c(C)nn(-c2ccccc2)c1N1CCC(C(=O)Nc2cc(F)ccc2F)CC1,inactive: 63%
11,Cn1cc(S(=O)(=O)N2CCCC2)cc1C(=O)N1CCN(c2cccc(Cl)c2)CC1,inactive: 84%
12,Cc1cc2c(cc1NS(=O)(=O)c1ccc(NC(=O)CC(C)C)cc1)n(C)c(=O)c(=O)n2C,inactive: 82%
13,Cc1cc(C)c(NC(=O)Cn2c(=O)n(CC3CCCO3)c(=O)c3ccccc32)c(C)c1 (stereo not drawn),inactive: 89%
14,COc1ccc(C2=NS(=O)(=O)N(C)C(C(=O)N(C)Cc3ccccc3)=C2)cc1OC,inactive: 89%
15,O=C1c2ccccc2C(=O)N1CNc1ccccc1C1CC1,inactive: 114%
16,CC(C)(C)C1(O)CC(C(F)F)=NN1C(=O)c1ccccc1 (stereo not drawn),inactive: 99%
17,Cc1ccccc1OCc1nc2ccccc2n1Cc1ccccc1Cl,active: 0%
18,CC(=O)c1ccc(NC(=O)CSc2cn(CC(=O)N(C(C)C)C(C)C)c3ccccc23)cc1,inactive: 92%
19,CCCOc1cccc(C2c3c(-c4ccccc4O)n[nH]c3C(=O)N2Cc2ccco2)c1 (stereo not drawn),active: 11%
20,CCS(=O)(=O)N1CCc2cc(C(=O)Nc3cccc(C(C)=O)c3)ccc21,inactive: 86%

row,Structure (SMILES),survival
1,CCCCN(CC)C(=O)CCNS(=O)(=O)c1ccc2c(c1)c(=O)n(C)c(=O)n2C,inactive: 84%
2,CC(C)CCNc1ncnc2c1nnn2Cc1ccccc1,inactive: 111%
3,CCCNC(=O)Cn1c(=O)c2cccn2c2cccnc21,inactive: 89%
4,CCCNC(=O)C1Cc2cc(S(=O)(=O)N3CCCCCC3)ccc2N1C(C)=O (stereo not drawn),inactive: 71%
5,CCCn1cnc2cc(NCc3ccccc3OCC)ccc21,inactive: 61%
6,CCn1c(C(=O)NCc2ccccc2Br)cc2oc3ccccc3c21,inactive: 36%
7,COC(=O)c1ccc(C(=O)OC)c(NC(=O)c2cc3nc(-c4ccc(C)cc4)cc(C(F)(F)F)n3n2)c1,inactive: 68%
8,COCCCNC(=O)c1sc2nc(C)c(C(=O)Nc3ccc(C)cc3C)c(-c3ccccc3Cl)c2c1N,inactive: 74%
9,CCc1ccc2oc(-c3ccc(NC(=O)c4cc5ccccc5o4)cc3)nc2c1,inactive: 76%
10,CCCNC(=O)CCCN1C(=O)CCn2nc(-c3cccn3C)cc21,inactive: 71%
11,O=C(O)CCCn1c(=O)oc2ccccc21,inactive: 99%
12,CCc1cc(=O)oc2c(C)c3c(cc12)CN(CCc1ccccc1OC)CO3,inactive: 85%
13,COc1ccc(C(=O)NCc2ccc3c(c2)CCN3C(=O)c2ccccc2)cc1,inactive: 82%
14,O=C(CCSCc1cnn(-c2ccccc2)c1-n1cccc1)NCc1ccccc1Cl,inactive: 77%
15,Cc1cc(C)cc(Nc2cc(C(=O)NCCCN(C)C3CCCCC3)c3ccccc3n2)c1,active: 26%
16,Cc1ccc(Cl)cc1N1CCN(C(=O)c2ccc(CS(=O)c3ccccc3)o2)CC1 (stereo not drawn),inactive: 134%
17,COc1ccc(NS(=O)(=O)c2ccc(-c3cnc(C4CC4)o3)cc2)cc1Cl,inactive: 146%
18,COCCNC(=O)c1nn(-c2ccc(C)cc2)c(=O)n(C)c1=O,inactive: 83%
19,Cc1ccc(C2C3=C(CCCC3=O)N(C)C3=C2C(=O)CCC3)cc1,inactive: 113%
20,COc1ccc(C(CNC(=O)c2oc3cc(C)c(Cl)cc3c2C)N2CCCCC2)cc1 (stereo not drawn),inactive: 87%

row,Structure (SMILES),survival
1,CC1CCN(S(=O)(=O)c2ccc3nc(NCc4ccccc4)ccc3c2)CC1,inactive: 131%
2,OC1COCc2nc3ccccc3n2C1 (stereo not drawn),inactive: 106%
3,COCCNC(=O)CCc1c(C)n(C)c2cc(-c3cc(OC)c(OC)c(OC)c3)nn2c1=O,inactive: 19%
4,COC(=O)c1scc(-c2ccc(C)cc2)c1S(=O)(=O)N1CCN(c2ccc(C)cc2C)CC1,inactive: 87%
5,O=C(Cn1nc(-c2ccc(Cl)cc2)c2ccccc2c1=O)Nc1cccc(C(F)(F)F)c1,inactive: 71%
6,Cn1c(=O)c(=O)n(C)c2cc(C(=O)NCc3ccccc3Cl)ccc21,inactive: 74%
7,Cn1c(SCc2cc(=O)c3cc(Cl)ccc3[nH]2)nnc1-c1ccccc1,inactive: 126%
8,O=C(Nc1sc2c(c1C(=O)c1ccccc1)CCCC2)c1ccco1,inactive: 102%
9,COc1cccc(Nc2nc3ccccc3c3nncn23)c1,inactive: 84%
10,Cc1ccc2c(c1)N(CC(=O)N1CCCC1)C(=O)C(C)O2 (stereo not drawn),inactive: 100%
11,CCCCC(=O)Nc1ccc(OCc2cc(=O)n3c(C)csc3n2)cc1,inactive: 87%
12,O=C(NCc1ccccc1Cl)c1c2c(nc3ccccc13)C(=O)N(C1CCCCC1)C2,inactive: 79%
13,COC(=O)c1oc2ccc(Cl)cc2c1C,inactive: 108%
14,CCN(CC)c1ccc(C2C(C(=O)Nc3ccccc3C)=C(C)Nc3ncnn32)cc1 (stereo not drawn),inactive: 124%
15,COC(=O)CCCCCn1c(-c2ccccc2)cn2c3c(=O)n(C)c(=O)n(C)c3nc12,inactive: 160%
16,Cc1cc2c(cc1NC(=O)c1ccccc1Cl)n(C)c(=O)c(=O)n2C,inactive: 55%
17,Cc1cccc(CCn2c(=O)c3ccccc3n(CC(=O)Nc3ccccc3F)c2=O)c1,inactive: 71%
18,COc1ccc(OC)c(C(=O)CSc2ncc3c(n2)-c2ccccc2N(Cc2ccccc2C)S3(=O)=O)c1,inactive: 47%
